Article PMC4336329 (PLoS ONE, 2015)
The campaign covered roughly 310,000 compounds. About 2,200 (0.71%) showed an effect of 50% or more. Effects have a minus sign here. The list shows a part of the results.

What follows are compounds tested against human ether-à-go-go-related gene (hERG) potassium channel (human, UniProt Q12809) (assay: primary screen, population patch clamp on CHO cells stably expressing hERG).
Sequence of human ether-à-go-go-related gene (hERG) potassium channel (Q12809 whole entry, looked up): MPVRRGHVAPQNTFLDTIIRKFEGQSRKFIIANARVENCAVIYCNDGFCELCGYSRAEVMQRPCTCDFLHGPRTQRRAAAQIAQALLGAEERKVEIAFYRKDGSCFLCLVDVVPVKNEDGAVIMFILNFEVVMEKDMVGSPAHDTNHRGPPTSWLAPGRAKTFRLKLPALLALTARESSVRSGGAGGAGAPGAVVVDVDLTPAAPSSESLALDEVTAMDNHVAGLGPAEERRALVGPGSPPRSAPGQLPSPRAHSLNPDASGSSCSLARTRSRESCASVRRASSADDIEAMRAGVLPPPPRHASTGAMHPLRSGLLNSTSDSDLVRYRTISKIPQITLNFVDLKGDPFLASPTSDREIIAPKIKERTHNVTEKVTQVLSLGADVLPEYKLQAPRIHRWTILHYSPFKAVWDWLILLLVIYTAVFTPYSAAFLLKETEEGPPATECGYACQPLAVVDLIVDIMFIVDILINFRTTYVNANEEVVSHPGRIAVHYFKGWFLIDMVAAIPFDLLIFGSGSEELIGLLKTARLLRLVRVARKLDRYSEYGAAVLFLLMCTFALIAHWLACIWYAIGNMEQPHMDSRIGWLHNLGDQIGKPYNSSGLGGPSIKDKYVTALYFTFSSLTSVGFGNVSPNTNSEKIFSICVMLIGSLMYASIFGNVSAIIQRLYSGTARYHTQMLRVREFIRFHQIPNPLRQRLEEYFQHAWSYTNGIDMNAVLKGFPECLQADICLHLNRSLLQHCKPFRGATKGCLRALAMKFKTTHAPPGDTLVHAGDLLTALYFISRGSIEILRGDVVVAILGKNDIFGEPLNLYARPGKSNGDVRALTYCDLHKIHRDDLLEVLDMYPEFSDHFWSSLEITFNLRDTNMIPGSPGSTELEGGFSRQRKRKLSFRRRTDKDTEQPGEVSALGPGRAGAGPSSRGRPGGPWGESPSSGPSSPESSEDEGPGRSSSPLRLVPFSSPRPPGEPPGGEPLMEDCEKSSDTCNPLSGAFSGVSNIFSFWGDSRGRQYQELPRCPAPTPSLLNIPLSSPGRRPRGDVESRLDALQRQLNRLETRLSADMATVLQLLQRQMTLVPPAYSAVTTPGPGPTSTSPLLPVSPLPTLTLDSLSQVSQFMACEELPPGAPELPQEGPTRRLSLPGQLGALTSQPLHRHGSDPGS
In the case of `CCCCC(=O)Nc1ccc(N2CCN(C(=O)c3ccco3)CC2)cc1`, the “hERG current change (%, negative = inhibition) at 1uM” value was -3.26%. In the case of `CCOCC(=O)Nc1cc(C(=O)OC)ccc1C(=O)OC`, the “hERG current change (%, negative = inhibition) at 1uM” value was 8.88%. `CC1CCCC(C)N1C(=O)CN1C(=O)C(C)(C)Oc2ccc(C(=O)NC3CCCC3)cc21` (centres unmarked) was tested, and the “hERG current change (%, negative = inhibition) at 1uM” value was -2.17%. For `COCCN(C(=O)COC(=O)CCC(=O)c1cccs1)c1c(N)n(Cc2ccccc2)c(=O)[nH]c1=O`, the “hERG current change (%, negative = inhibition) at 1uM” value was 9.85%. With `Cc1cccc(N(CC(=O)N2CCCC2)S(=O)(=O)c2ccccc2)c1C` the “hERG current change (%, negative = inhibition) at 1uM” value was 1.76%. `CCOC(=O)c1c(C)n(CC)c2ccc(OC(=O)c3ccc([N+](=O)[O-])cc3)cc12` was tested, and the “hERG current change (%, negative = inhibition) at 1uM” value was 8.35%. In the case of `OC(CNCc1ccccc1F)(c1ccc(F)cc1)c1ccc(F)cc1`, the “hERG current change (%, negative = inhibition) at 1uM” value was -1.96%. In the case of `O=C(c1ccc(Cl)cc1)C1CCCN(Cc2cccc3cccnc23)C1` (centres unmarked), the “hERG current change (%, negative = inhibition) at 1uM” value was -43.8%. With `COc1ccc2ccccc2c1CNC(C)CCc1ccccc1.O=C(O)C(=O)O` (centres unmarked) the “hERG current change (%, negative = inhibition) at 1uM” value was -36%. With `Cc1nc(CCNS(=O)(=O)c2cccs2)cs1` the “hERG current change (%, negative = inhibition) at 1uM” value was 0.69%. For `CCCCNC(=O)OCC(CC)NC(=O)OC(C)C` (centres unmarked), the “hERG current change (%, negative = inhibition) at 1uM” value was 16.7%. `C[C@H]1[C@H](OC(=O)CCC(=O)NCc2ccc(C(=O)O)cc2)O[C@@H]2O[C@@]3(C)CC[C@H]4[C@H](C)CC[C@@H]1C24OO3` was tested, and the “hERG current change (%, negative = inhibition) at 1uM” value was -10.5%. In the case of `N#CC(C#N)=Cc1ccc(OC(=O)c2ccccn2)cc1`, the “hERG current change (%, negative = inhibition) at 1uM” value was 5.8%. In the case of `O=C(COc1cccc2cccnc12)N/N=C/c1ccccc1O`, the “hERG current change (%, negative = inhibition) at 1uM” value was 6.63%. For `Nc1nnc(SCCOc2ccccc2)s1`, the “hERG current change (%, negative = inhibition) at 1uM” value was 0.271%. With `CN1CCN(S(=O)(=O)c2ccc(N(C)Cc3ccc(C(F)(F)F)cc3)c([N+](=O)[O-])c2)CC1` the “hERG current change (%, negative = inhibition) at 1uM” value was 13.1%. `CCN1CCN(C(=O)C23CCC(C)(C(=O)C2Br)C3(C)C)CC1` (centres unmarked) was tested, and the “hERG current change (%, negative = inhibition) at 1uM” value was -0.0512%. For `COc1ccc(NC(=O)CSc2nnc(N)s2)cc1`, the “hERG current change (%, negative = inhibition) at 1uM” value was 18.7%. `COc1ccc(C2CC(=O)c3cnc(NC(=O)c4ccccc4OC)nc3C2)c(OC)c1` (centres unmarked) was tested, and the “hERG current change (%, negative = inhibition) at 1uM” value was 14.5%. For `C/C(=N\NC(=O)c1ccncc1)c1c(O)[nH]c(=O)[nH]c1=O`, the “hERG current change (%, negative = inhibition) at 1uM” value was 0.43%. In the case of `Cc1cccc(NS(=O)(=O)c2cccc(C(=O)Nc3cccc(C(=O)O)c3)c2)c1`, the “hERG current change (%, negative = inhibition) at 1uM” value was 10.6%. In the case of `O=C(c1nc2ccccn2c1CN1CCCC(O)C1)N1CCN(C2CCCCC2)CC1` (centres unmarked), the “hERG current change (%, negative = inhibition) at 1uM” value was 5.78%. With `Cc1noc(C)c1CSCC(=O)OCC(=O)N1CC(=O)Nc2ccccc21` the “hERG current change (%, negative = inhibition) at 1uM” value was -10.9%. With `CN(C(=O)CN1CCN(c2cnn(-c3ccccc3)c(=O)c2Cl)CC1)C1CCS(=O)(=O)C1` (centres unmarked) the “hERG current change (%, negative = inhibition) at 1uM” value was 6.02%. With `CC(C)(C)c1ccc(-c2nc(N)nc(N)n2)cc1` the “hERG current change (%, negative = inhibition) at 1uM” value was 15.3%. `CCCCn1c(CN2C(=O)c3ccccc3C2=O)nc2ccccc2c1=O` was tested, and the “hERG current change (%, negative = inhibition) at 1uM” value was 6.34%. For `CC(=O)N1c2ccc(S(=O)(=O)NCCC(=O)NCc3ccc(F)cc3)cc2CC1C` (centres unmarked), the “hERG current change (%, negative = inhibition) at 1uM” value was 15.7%. `CCCN(C(=O)c1cccs1)c1c(N)n(Cc2ccccc2)c(=O)[nH]c1=O` was tested, and the “hERG current change (%, negative = inhibition) at 1uM” value was -4.34%. With `N#C/C(=C\c1ccc(-c2ccccc2C(=O)O)o1)c1nc2ccccc2[nH]1` the “hERG current change (%, negative = inhibition) at 1uM” value was 11%. With `N#C/C(=C\c1ccc(OCc2ccc(Cl)cc2)cc1)C(=O)Nc1cccc(C(=O)O)c1` the “hERG current change (%, negative = inhibition) at 1uM” value was 14.3%. `O=C(Nc1ccc(OCC(=O)N2CCOCC2)cc1)c1cccc(Cl)c1` was tested, and the “hERG current change (%, negative = inhibition) at 1uM” value was 6.25%. With `CCOc1ccccc1CN1CCN(Cc2cccc3c2OCO3)CC1CCO` (centres unmarked) the “hERG current change (%, negative = inhibition) at 1uM” value was -2.66%. For `CCN(CCCNC(=O)C1CCCN(S(=O)(=O)CC)C1)c1cccc(C)c1` (centres unmarked), the “hERG current change (%, negative = inhibition) at 1uM” value was 3%. For `COc1ccc(C2C(C(=O)N3CCN(c4ccc(OC)cc4)CC3)c3ccccc3C(=O)N2C)cc1` (centres unmarked), the “hERG current change (%, negative = inhibition) at 1uM” value was 2.07%. With `Cc1ccnc(N2C(=O)CSC2c2ccc(Cl)cc2)c1` (centres unmarked) the “hERG current change (%, negative = inhibition) at 1uM” value was 5.33%. In the case of `COc1ccc(CCNC(=O)CSc2nc3[nH]ncc3c(=O)n2-c2ccc(Cl)cc2Cl)cc1OC`, the “hERG current change (%, negative = inhibition) at 1uM” value was 18.7%. With `Cc1cc(C)c(C)c(/C=C(/C#N)C(N)=S)c1C` the “hERG current change (%, negative = inhibition) at 1uM” value was 4.11%. With `Cc1ccc(S(=O)(=O)Oc2ccccc2/C=C2\SC(=O)NC2=O)cc1` the “hERG current change (%, negative = inhibition) at 1uM” value was 17.6%. For `CC(C)(C)c1cc(=O)n2c(C#N)c(C#N)nc2[nH]1`, the “hERG current change (%, negative = inhibition) at 1uM” value was 9.45%. In the case of `CCOc1ccc(NS(=O)(=O)c2ccc3[nH]c(=O)cc(C(=O)O)c3c2)cc1`, the “hERG current change (%, negative = inhibition) at 1uM” value was 14.6%. In the case of `CCCCN(C)CCCNC(=O)C1CC(=O)N(Cc2ccc(OC)cc2)C1` (centres unmarked), the “hERG current change (%, negative = inhibition) at 1uM” value was 1.02%. With `CCOC(=O)c1c(N)sc(C(=O)OCCOC)c1C` the “hERG current change (%, negative = inhibition) at 1uM” value was 18.6%. With `CN(C)/C=C1\N=C(c2cccs2)OC1=O` the “hERG current change (%, negative = inhibition) at 1uM” value was 12%. `O=C1CC(c2ccc(Cl)cc2)SC(N(c2ccccc2)c2ccccc2)=N1` (centres unmarked) was tested, and the “hERG current change (%, negative = inhibition) at 1uM” value was -2.81%. With `c1ccc(-c2noc(-c3ccno3)n2)nc1` the “hERG current change (%, negative = inhibition) at 1uM” value was 4.93%. `Cl.c1ccc2c(N3CCOCC3)nc(N3CCOCC3)nc2c1` was tested, and the “hERG current change (%, negative = inhibition) at 1uM” value was -1.22%. In the case of `O=c1c2ccccc2nnn1CCO`, the “hERG current change (%, negative = inhibition) at 1uM” value was 16.5%. In the case of `CC(C)c1nc(SCC(=O)N2CCc3ccccc32)n[nH]1`, the “hERG current change (%, negative = inhibition) at 1uM” value was -3.3%. For `CCCc1ccc(C2=Nn3c(nnc3C(C)C)SC2)cc1`, the “hERG current change (%, negative = inhibition) at 1uM” value was 5.93%. For `Nc1ccccc1Nc1ccc([N+](=O)[O-])cc1[N+](=O)[O-]`, the “hERG current change (%, negative = inhibition) at 1uM” value was -4.09%. With `Cc1c(Cl)c([N+](=O)[O-])nn1CCCC(=O)N1CCN(c2ccccc2)CC1` the “hERG current change (%, negative = inhibition) at 1uM” value was -4.03%. For `Cc1nc(-c2ccc(S(=O)(=O)Nc3ccccc3C)cc2)co1`, the “hERG current change (%, negative = inhibition) at 1uM” value was 7.55%. For `Nc1nc2n(n1)C(c1cccs1)CC(c1ccccc1)N2` (centres unmarked), the “hERG current change (%, negative = inhibition) at 1uM” value was 4.31%. `Cc1c(-c2ccc(F)cc2)[n+](=O)c2c(n1[O-])CCCCC2` was tested, and the “hERG current change (%, negative = inhibition) at 1uM” value was 9.44%. `Cc1ccc(C)c(NC(=O)Cn2nc(-c3ccccc3)nc2-c2ccccc2)c1` was tested, and the “hERG current change (%, negative = inhibition) at 1uM” value was 16.6%. With `CCCc1nnc(SCCSc2nnc(CCC)n2N)n1N` the “hERG current change (%, negative = inhibition) at 1uM” value was 5.6%.
